Measurements as given in the supplement of paper PMC10126150.
Values marked as one replicate rest on one cluster of the flow cell; about a third of the high ones do not repeat.

Tested on: ATP
Test: switch fluorescence ratio, 500 uM ATP over buffer (Cy3 cluster intensity, sum of 5 cycles each) (fold (ratio)); higher = stronger signal-on switching upon ATP binding; sequences stand for … in TCGTCGGCAGCGTCAGATGTGTATAAGAGACAGTTTTTTTTTTTTTTTTTTTTTTTTT…TC
Settings: aptamer strand: ATP DNA aptamer (quencher-CACCTGGGGGAGTATTGCGGAGGAAGG + anchor), 100 nM annealed; ATP concentration: 500 uM; one replicate
How it was run: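 Clusters carrying Cy3-labelled switching strands on a modified Illumina MiSeq flow-cell were annealed to 100 nM quencher-labelled ATP aptamer and imaged in selection buffer. They were imaged again after 15 min with 500 uM ATP at 22 °C, over five buffer/ATP cycles with NaOH stripping and re-annealing in between. For each cluster, the fluorescence ratio is the summed Cy3 intensity of the target cycles divided by that of the buffer cycles, averaged per switch-domain sequence. Clusters outside 100-1000 RFU were left out.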
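Further: ATP exposure 15 min at 22 °C before imaging.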

Sequence	switch fluorescence ratio
AACAGGTATG	1.02
GCGGATGCCT	0.985
AACGTATAGA	1.07
TTTGAGGG	1.02
TTCTGGGAAT	0.959
TACGCGCACT	1.16
TCGCGGCACT	1.79
GGAACCGTAT	1.05
TGAGCTACGG	1.03
CTGACCCCCC	1.82
AGTGTAGGTC	1.08
CGTCATGGTG	1.04
GGGGAGCCCA	0.989
AGAACACGGG	0.996
ACCCTGCACG	1.15
TATCGACGCT	1.35
CTGAGTTAG	1.01
CGGGATGCA	1.06
CAACGGCTGC	1.09
CGTGGGCTTG	0.975
CTCGGATTGA	1
TAAATGAGCT	0.979
TTTCCTCATT	1.61

Sequence	switch fluorescence ratio
AGCAGAGCCC	0.99
GGCTCTGGGC	1.02
ATGGAAGCGA	1.01
GCGGTATTAC	1.32
AATTAAGCAA	1.79
TTACTTACTC	1.21
TTAGGCGACG	0.961
TGGAGACCCA	0.999
TCCGAATCGG	0.982
CGACTATAAT	1.08
CGGGTATCG	0.976
AAAGCAGTGC	1.3
CGGTTTATTT	1.02
GGATATACAC	1.08
TAGGTTGGTA	0.998
CCATGCATTC	2.94
TTTACTCAG	1.04
ATAAAAATTG	0.937
GATGCTGAGA	0.966
ACGACGTATG	1.02
AGCGGAGACG	1.02
GGAGTAGTTA	0.983
GGGCGCGGAC	1.23

Sequence	switch fluorescence ratio
GGTGGCAGCG	1.02
GTTCTTTTTG	0.992
AATGAGCGAG	1.05
ACAGGGCAG	1.06
GGGCGAATCG	0.98
CGTAGGATAG	1.05
GAGTTTCGAT	0.971
AGATAAACGC	0.987
CTCATAACA	1.02
GATTCTATTT	0.993
ACCATAGTCG	1.01
GGGGAAGATG	0.978
CTCCAACGTT	1.07
AGTTTAACTT	0.979
TGAAGCTAGT	0.993
GACCATTTAT	1.01
GGATGGATGC	0.986
TTATTCCGCC	1.64
AGGCCGTGGA	1.02
TTCAGTGTCT	0.979
TTGTGGCTGC	1.03
GCACAGTTGC	1
TGCGAATTCA	0.975

Sequence	switch fluorescence ratio
AATCACTAAG	1.06
TTCCTAGCGG	0.987
CTTATTGCCA	1.34
GGTATATGCT	0.982
GCTTTAACCA	0.992
TCGGACGGA	1.1
CGGGTGAATA	1.03
TCCGGTGCGT	1.25
AGCACGCAGC	1.08
TAGTGTCCAT	1.02
TGTGGCTCCA	0.966
ACGTCGTCTT	1.04
TATTGACATC	1.05
GTTATTGGCA	1.04
CTTTATGTAC	1.07
TGGAATCGGA	0.973
ATGGTTAATG	1.02
TGAGCATGTA	1.02
TGGACCCGGA	0.886
ACTGCATTAT	1.23
GAGGGACGTA	0.985
GGAGTCAGCA	1.06
CGCGTGGCTT	1.02

Sequence	switch fluorescence ratio
AAGTACCGCA	1.33
TTATGTAATG	1.01
CAATTGAG	1.02
AAAGAAGTAC	1.16
TTAACTGATA	1.07
ATAGTCGGGT	1.05
ACGCTAAGGG	1.08
TAGGATTGGA	1.03
TCAGCTGGGT	1.03
CTTAGATAAT	1.03
TTACCGTCTA	1.09
TGTCATGTGA	1.06
TCGCGGAAAG	1.01
CTGCTTTCG	1
CCATGAGCTC	1.07
TTCATTGCAC	1.06
CGTTGACGTT	1.03
AGGCGATCGC	0.992
AAATACACCG	1.03
GGGTTGAACT	0.987
GGTTGCCCGT	0.97
GAGCCTGGGA	0.968
CTGTTAGAT	0.985

Sequence	switch fluorescence ratio
GGATCTCGAG	0.961
AGTAACCGT	1
AGGCTTATTA	0.997
TACCTTTGAC	1.12
GTAGAATTTG	1.01
CTTATCCAAT	1.04
ACGCCGGTTC	1.08
CGATTTAAAT	0.997
AATTTGCTAG	1.04
TGTTGGGGT	0.975
CTTGGAGATG	0.996
CAAACATAGG	1.01
GTGGTCGCAG	0.961
TCTACGATGA	1.05
CATGTTAAGC	1.11
GATGGTGG	0.987
GCTCTGCATG	1.47
CGAACAAGCG	1.02
TCTTAAGATG	0.995
ACTTAGTAGG	0.992
CCAGAACGCT	1.11
CACGAGAGG	0.996
ATATGAAGTT	1.02

Sequence	switch fluorescence ratio
GAGGGTCGCG	0.976
TGCCTCAACA	1.06
CAGATCATAT	0.951
TCAGTCGGAG	1.04
AATATAAGG	1
ATGATAGGG	0.992
ATATACGTGG	0.982
GTTATACAAG	1.03
CGATGGGGAG	0.962
TCAATATCTT	0.938
GTTTTAGACA	0.951
GCAAACGTCT	1.05
TACTTGCCTG	0.93
TCGCTAGAG	1.11
ACGTGCTGAA	0.984
AGAGCAGCTC	1
CTAGATTAAG	0.951
ATATCAGTAG	0.983
GCCAGAATTT	0.991
